Part of at least one peptide drawing is inferred or uncertain, most often the ends. Some entries repeat one wording, which the source may state once for all of them. Residues, ends and D or L forms follow the SMILES beside them. *: point of attachment. Acm = CC(=O)NC*
Experiments:
Type in all cases: physicochemical
[1] = Adsorption capacity, modified Wilhelmy surface balance; settings: measured after three (3) minutes spreading time; peptide 0.5 mg/ml (~2% of solids)
Description: (§1) Prior to testing for surface activity, the synthetic fragments were admixed with lipids. A lipid mixture consisting of 68% 1,2-dipalmitoyl-sn-phosphatidylcholine (DPPC), 22% egg phosphatidylglycerol (PG) and 9% palmitic acid on a weight basis was prepared by dissolving the lipids in chloroform:methanol (2:1). The required amount of peptide fragment was dissolved in methanol and heated to 60° C. for 10 minutes. The peptide solution was then added to the lipid mixture prewarmed to 45° C. for ten minutes. The samples were mixed at 45° C. by gentle swirling at 100 revolutions per minute on a Buchi rotary evaporator. The organic solvents were then evaporated at 45° C. by increasing the vacuum in 100 torr increments every five minutes until most of the solvent was removed. Final vacuum was between 150-200 torr. Following evaporation, the solids were then suspended in 10% ethanol prewarmed to 45° C. and which was prepared using deionized distilled water. The suspension was gently mixed with vortexing and placed back under vacuum at 600 torr with a repeat of the vacuum ramping process. Final vacuum for the ethanol removal was 50 torr. Following complete removal of ethanol the suspension was diluted with aqueous 0.15M NaCl at 45° C. to yield an admixture with a phospholipid concentration of 25 mg/ml. The peptide/lipid admixtures were formed at final peptide concentrations of 0.5 mg/ml (equivalent to 2% of solids concentration).
A procedure similar to that described by Notter, et al., Pediatric Res. 16, 515-519 (1982) was employed to determine the absorption rate in the absence of diffusion resistance. The modified Wilhelmy surface balance as described above was used. However, instead of using a Langmuir trough, a round Teflon dish (5.1 cm diameter) was employed. The subphase, 70 ml of 0.15M NaCl, was allowed to equilibrate to 37° C. in the incubator and was continuously stirred with a Teflon coated magnetic stirrer. An aliquot of the peptide/lipid fragment admixture containing 5 mg of total phospholipid was dispersed in 10 ml of 0.15M NaCl by vortexing for 10 seconds. This dispersion was then added to the saline subphase. Surface tension lowering was monitored using a strip chart recorder connected to the electro-balance output.

[2] = Dynamic surface tension versus compressed surface area, modified Wilhelmy Surface Balance (Langmuir Trough); settings: peptide 0.5 mg/ml (~2% of solids) in DPPC:PG:PA 68:22:9; 675 ug phospholipid on 445 sq. cm trough; recorded during seven complete cycles
Description: as §1
The dynamic surface tension lowering properties of the peptide/lipid admixtures were studied using a modified Wilhelmy Surface Balance (Langmuir Trough). The instrument consists of an all Teflon trough and movable Teflon ribbon (dam) barrier system which completely contains and defines a variable surface area. Surface area was varied through the use of a constant rate reversible 3-phase motor to drive the Teflon barrier. A Cahn 2000 electrobalance (Cahn Instruments, Cerittos, Calif.) with a sandblasted 1 cm platinum plate and stainless steel hangdown wire was employed to determine the surface tension at the liquid-air interface. The entire apparatus was situated in a thermostated incubator set at 45° C. Surface area-surface tension measurements were made by adding 950 ml of 0.15M NaCl to the trough. Subphase temperature was controlled during the measurements at 36°-38° C.
For each experiment 27 ul of peptide/lipid admixture was applied in a random array of 13 droplets to the surface of the temperature controlled subphase and allowed to spread spontaneously for 3 minutes. (The 27 ul application corresponds to 675 ug of phospholipid). The trough surface area was then cycled from a maximum (445 sq. cm) to a minimum (178 sq. cm) surface area and back to maximum at a cycling rate of 3 cycles/min (compression ratio 2.5:1). The dynamic surface tension versus surface area was recorded for 7 complete compression-expansion cycles for each application.

[3] = Relative surface activity by dilution studies on the modified Wilhelmy Balance-Langmuir Trough; settings: summary of Tables 3, 4 and 5
Description: For the purpose of this comparison "surface activity" is defined as follows: For any given peptide concentration, the admixture is required to result in a minimum dynamic surface tension of less than 10 dynes/cm for each of seven consecutive expansion/compression cycles.
Initially each of the admixtures was formulated so as to contain an equal number of moles of the individual peptide as is contained in a 0.5 mg/mL admixture of SP-B(53-78). […] Thereafter, each of these admixtures was diluted with the standard lipid mixture as described in Example 4, so as to provide doubling dilutions of the equimolar "parent" stock peptide admixture. The lipid concentration in all cases was maintained at 25 mg/ml.
Assessment of relative surface activity was conducted on the modified Wilhemy-Langmuir Surface Balance. For these studies a standard volume of 27 ul of each admixture, corresponding to a total phospholipid mass of 675 ug, was applied to the Langmuir Trough with maximum dimensions of 445 sq. cm.

SMILES	Adsorption (equilibrium adsorption surface tension) [1]	Surface Tension Maximum [2]	Surface Tension Minimum [2]	surface activity (in words) [3]
CSCC[C@H](NC(=O)[C@H](CCCNC(=N)N)NC(=O)CNC(=O)[C@H](CC(C)C)NC(=O)[C@H](CC(C)C)NC(=O)[C@@H](NC(=O)[C@H](CC(=O)O)NC(=O)[C@@H](N)CC(C)C)[C@@H](C)O)C(=O)N[C@@H](CC(C)C)C(=O)N1CCC[C@H]1C(=O)N[C@@H](CCC(N)=O)C(=O)N[C@@H](CC(C)C)C(=O)N[C@H](C(=O)N[C@@H](CSCNC(C)=O)C(=O)N[C@@H](CCCNC(=N)N)C(=O)N[C@@H](CC(C)C)C(=O)N[C@H](C(=O)N[C@@H](CC(C)C)C(=O)N[C@@H](CCCNC(=N)N)C(=O)N[C@@H](CSCNC(C)=O)C(=O)N[C@@H](CO)C(=O)O)C(C)C)C(C)C [SP-B(58-78)diAcm] (H-LDTLLGRMLPQLVC(Acm)RLVLRC(Acm)S-OH)	43.5 dynes/cm	55.0 dynes/cm	1.0 dynes/cm	unusual surface activity
CSCC[C@H](NC(=O)[C@H](CCCNC(=N)N)NC(=O)CN)C(=O)N[C@@H](CC(C)C)C(=O)N1CCC[C@H]1C(=O)N[C@@H](CCC(N)=O)C(=O)N[C@@H](CC(C)C)C(=O)N[C@H](C(=O)N[C@@H](CSCNC(C)=O)C(=O)N[C@@H](CCCNC(=N)N)C(=O)N[C@@H](CC(C)C)C(=O)N[C@H](C(=O)N[C@@H](CC(C)C)C(=O)N[C@@H](CCCNC(=N)N)C(=O)N[C@@H](CSCNC(C)=O)C(=O)N[C@@H](CO)C(=O)O)C(C)C)C(C)C [SP-B(63-78)diAcm] (H-GRMLPQLVC(Acm)RLVLRC(Acm)S-OH)	44.0 dynes/cm	52.0 dynes/cm	1.3 dynes/cm	
CSCC[C@H](NC(=O)[C@H](CCCNC(=N)N)NC(=O)CN)C(=O)N[C@@H](CC(C)C)C(=O)N1CCC[C@H]1C(=O)N[C@@H](CCC(N)=O)C(=O)N[C@@H](CC(C)C)C(=O)N[C@H](C(=O)O)C(C)C [SP-B(63-70)] (H-GRMLPQLV-OH)	61.0 dynes/cm	68.5 dynes/cm	15.4 dynes/cm	
CC[C@H](C)[C@H](NC(=O)[C@@H](NC(=O)[C@H](CO)NC(=O)[C@@H](N)Cc1ccc(O)cc1)C(C)C)C(=O)N[C@@H](CC(C)C)C(=O)N[C@@H](CC(C)C)C(=O)N[C@@H](CC(=O)O)C(=O)N[C@H](C(=O)N[C@@H](CC(C)C)C(=O)N[C@@H](CC(C)C)C(=O)NCC(=O)N[C@@H](CCCNC(=N)N)C(=O)N[C@@H](CCSC)C(=O)N[C@@H](CC(C)C)C(=O)N1CCC[C@H]1C(=O)N[C@@H](CCC(N)=O)C(=O)N[C@@H](CC(C)C)C(=O)N[C@H](C(=O)O)C(C)C)[C@@H](C)O [SP-B(53-70)] (H-YSVILLDTLLGRMLPQLV-OH)	44.0 dynes/cm	49.0 dynes/cm	1.2 dynes/cm	
CSCC[C@H](NC(=O)[C@H](CCCNC(=N)N)NC(=O)CN)C(=O)N[C@@H](CC(C)C)C(=O)N1CCC[C@H]1C(=O)N[C@@H](CCC(N)=O)C(=O)N[C@@H](CC(C)C)C(=O)N[C@H](C(=O)N[C@@H](C)C(=O)N[C@@H](CCCNC(=N)N)C(=O)N[C@@H](CC(C)C)C(=O)N[C@H](C(=O)N[C@@H](CC(C)C)C(=O)N[C@@H](CCCNC(=N)N)C(=O)N[C@@H](C)C(=O)N[C@@H](CO)C(=O)O)C(C)C)C(C)C [SP-B(63-78)diAla] (H-GRMLPQLVARLVLRAS-OH)	45.5 dynes/cm	50.5 dynes/cm	2.2 dynes/cm	unusual surface activity
CC(=O)NCSC[C@H](NC(=O)[C@H](CCCNC(=N)N)NC(=O)[C@H](CC(C)C)NC(=O)[C@@H](NC(=O)[C@H](CC(C)C)NC(=O)[C@H](CCCNC(=N)N)NC(=O)[C@H](CSCNC(C)=O)NC(=O)[C@@H](NC(=O)[C@H](CC(C)C)NC(=O)[C@H](CCC(N)=O)NC(=O)[C@@H]1CCCN1C(=O)[C@@H](N)CC(C)C)C(C)C)C(C)C)C(=O)N[C@@H](CO)C(=O)O [SP-B(66-78)diAcm] (H-LPQLVC(Acm)RLVLRC(Acm)S-OH)	47.0 dynes/cm	55.6 dynes/cm	1.6 dynes/cm	

The remaining lines, values ahead:

Adsorption (equilibrium adsorption surface tension) [1]	Surface Tension Maximum [2]	Surface Tension Minimum [2]	surface activity (in words) [3]	SMILES
50.0 dynes/cm	66.0 dynes/cm	12.7 dynes/cm		CC(C)C[C@H](NC(=O)[C@H](CCCNC(=N)N)NC(=O)[C@H](C)NC(=O)[C@@H](NC(=O)[C@@H](N)CC(C)C)C(C)C)C(=O)N[C@H](C(=O)N[C@@H](CC(C)C)C(=O)N[C@@H](CCCNC(=N)N)C(=O)N[C@@H](C)C(=O)N[C@@H](CO)C(=O)O)C(C)C [SP-B(69-78)diAla] (H-LVARLVLRAS-OH)
46.0 dynes/cm	64.5 dynes/cm	4.4 dynes/cm		CSCC[C@H](NC(=O)[C@H](CCCNC(=N)N)NC(=O)CNC(=O)[C@H](CC(C)C)NC(=O)[C@H](CC(C)C)NC(=O)[C@@H](NC(=O)[C@H](CC(=O)O)NC(=O)[C@@H](N)CC(C)C)[C@@H](C)O)C(=O)N[C@@H](CC(C)C)C(=O)N1CCC[C@H]1C(=O)N[C@@H](CCC(N)=O)C(=O)N[C@@H](CC(C)C)C(=O)N[C@H](C(=O)O)C(C)C [SP-B(58-70)] (H-LDTLLGRMLPQLV-OH)
44.0 dynes/cm	53.5 dynes/cm	1.0 dynes/cm	unusual surface activity	CC(C)C[C@H](NC(=O)[C@H](CCC(N)=O)NC(=O)[C@@H]1CCCN1C(=O)[C@@H](N)CC(C)C)C(=O)N[C@H](C(=O)N[C@@H](C)C(=O)N[C@@H](CCCNC(=N)N)C(=O)N[C@@H](CC(C)C)C(=O)N[C@H](C(=O)N[C@@H](CC(C)C)C(=O)N[C@@H](CCCNC(=N)N)C(=O)N[C@@H](C)C(=O)N[C@@H](CO)C(=O)O)C(C)C)C(C)C [SP-B(66-78)diAla] (H-LPQLVARLVLRAS-OH)

Reference: US5753621A, “Pulmonary surfactant protein fragments” (Abbott Laboratories, priority 1995, dated 1998)
